Experimental data as given in the RNAGym collection of RNA variant scans (doi:10.7554/elife.90254).
Read counts are not given, so values of variants with three or more changes are uncertain.

B1: LINE1-mini (parent)
chain: GGCAGAGCUCAACACAGCGUGGCAAAGUGGCUGUGGCUAGACUGCC

Variants of: B1
Experiment: self-cleavage, relative activity (ratio to wild type); higher = more cleavage; in vitro, sequencing; the parent is a self-cleaving ribozyme

With G2U G5C G19C as the variant, how does the self-cleavage read?
Its self-cleavage is 0.03.

For A14U A26U G40A, which self-cleavage is on record?
Its self-cleavage is 0.01.

For G2U U34C C37A, which self-cleavage is on record?
The self-cleavage was 0.03.

For G2A A4C C15U C37U, which self-cleavage is on record?
Its self-cleavage is 0.14.

Which self-cleavage does the source give for C23A G30A G44C here?
Its self-cleavage is 1.36.

Which self-cleavage does the source give for G17A G21U G27C U43A here?
Its self-cleavage is 0.02.

With C3U U28G C42G G44C as the variant, how does the self-cleavage read?
Its self-cleavage is 0.01.

With U28G A39C C46A as the variant, how does the self-cleavage read?
The self-cleavage was 0.08.

For A12G C42A G44U, which self-cleavage is on record?
Its self-cleavage is 0.

With G30C C31A U38A A41U as the variant, how does the self-cleavage read?
Its self-cleavage is 0.07.

Which self-cleavage does the source give for C15A C23A A26C C31G C37U here?
Its self-cleavage is 0.02.

Which self-cleavage does the source give for C3A U9A A16U G22C here?
The self-cleavage was 0.16.

Which self-cleavage does the source give for A11G C13A G27U here?
The self-cleavage was 0.03.

Which self-cleavage does the source give for G17A C23A U34A here?
Its self-cleavage is 0.02.

With C18U G19C C31A as the variant, how does the self-cleavage read?
The self-cleavage was 0.21.

Which self-cleavage does the source give for C23U G30A G35C here?
Its self-cleavage is 0.16.

With G17A C18G G36U as the variant, how does the self-cleavage read?
The self-cleavage was 0.01.

With G2A G5U C10A as the variant, how does the self-cleavage read?
The self-cleavage was 0.05.

Which self-cleavage does the source give for C15U G21A G29U G36A here?
The self-cleavage was 0.08.

With A16U C18G U38C as the variant, how does the self-cleavage read?
The self-cleavage was 0.13.

Which self-cleavage does the source give for A14U C42G U43C here?
Its self-cleavage is 0.01.

Which self-cleavage does the source give for C18U U20A G21U C31G here?
The self-cleavage was 0.1.

With A16G U20A C23U C42A as the variant, how does the self-cleavage read?
The self-cleavage was 0.02.

With U9A G21A C42U as the variant, how does the self-cleavage read?
The self-cleavage was 0.67.

With C18G G22U G40U C42U C45G as the variant, how does the self-cleavage read?
The self-cleavage was 0.03.

For C3G C13G A25G G29U A39C C42A C45U, which self-cleavage is on record?
The self-cleavage was 0.05.

For C3U U9A C45G, which self-cleavage is on record?
Its self-cleavage is 0.

For C18U G19C A24U U32C, which self-cleavage is on record?
The self-cleavage was 0.11.

Which self-cleavage does the source give for A14C G22U G40U C42U here?
The self-cleavage was 0.02.

Which self-cleavage does the source give for G1U A6G C8U U32G C37U here?
The self-cleavage was 0.05.

Which self-cleavage does the source give for G1C C8U C10U G17C A26G U43G here?
The self-cleavage was 0.01.

Which self-cleavage does the source give for A4C G5U C18A G27C G30A U43C here?
The self-cleavage was 0.07.

Which self-cleavage does the source give for G5A G17C G22C U32C U34G U43G here?
Its self-cleavage is 0.02.

For C8A C15G U20C G33A, which self-cleavage is on record?
Its self-cleavage is 0.04.

For G7A G21U G36A C37A U43C, which self-cleavage is on record?
Its self-cleavage is 0.48.

For G2C C8G G30U C45U, which self-cleavage is on record?
Its self-cleavage is 0.02.

Which self-cleavage does the source give for C15A A39C C45G here?
The self-cleavage was 0.05.

Which self-cleavage does the source give for G1U C15A C23A C37A here?
The self-cleavage was 0.06.

With C8U C13A G40U as the variant, how does the self-cleavage read?
The self-cleavage was 0.23.

Which self-cleavage does the source give for C8U A12G C45U here?
Its self-cleavage is 0.04.

With U9C G19A G44U as the variant, how does the self-cleavage read?
The self-cleavage was 0.

For G2A G5C U9G G27A, which self-cleavage is on record?
Its self-cleavage is 0.08.

For G5C G30A C42A G44U, which self-cleavage is on record?
The self-cleavage was 0.09.

With G1A A12C C18A C37A C46G as the variant, how does the self-cleavage read?
Its self-cleavage is 0.07.

For A11U G21C G33U, which self-cleavage is on record?
The self-cleavage was 0.05.

With G7C C13G A16C as the variant, how does the self-cleavage read?
The self-cleavage was 0.06.

With A4G A16U G17A A25C C46G as the variant, how does the self-cleavage read?
Its self-cleavage is 0.04.

For U20G A26U A39U A41G, which self-cleavage is on record?
The self-cleavage was 0.05.

For A26G U28G C45G, which self-cleavage is on record?
Its self-cleavage is 0.11.

With G5A U28C A39C A41G C46A as the variant, how does the self-cleavage read?
Its self-cleavage is 0.1.

Which self-cleavage does the source give for C3U C23G A25U G27U C31A U34A A39U here?
The self-cleavage was 0.1.

Which self-cleavage does the source give for G2U C10A A16U U43A here?
The self-cleavage was 0.

Which self-cleavage does the source give for G21A G29C C37G here?
The self-cleavage was 0.01.

For A4U A11C G30A C46U, which self-cleavage is on record?
Its self-cleavage is 0.03.

For A6U A11U A16C C23G, which self-cleavage is on record?
The self-cleavage was 0.01.

Which self-cleavage does the source give for A6G A12G C15U G19C U28C C31G C42U C45U C46U here?
The self-cleavage was 0.01.

Which self-cleavage does the source give for G21U G29C C45G here?
Its self-cleavage is 1.

For A4C A26U A39G, which self-cleavage is on record?
The self-cleavage was 0.23.

For A12U A16C C42U, which self-cleavage is on record?
The self-cleavage was 0.02.

For A16G G22C G40U C46A, which self-cleavage is on record?
Its self-cleavage is 0.

With A6C U9C C10U U34C C37A as the variant, how does the self-cleavage read?
The self-cleavage was 0.

Which self-cleavage does the source give for G5C U9A A24C G30U here?
Its self-cleavage is 0.05.

For U9C G17C U43A, which self-cleavage is on record?
The self-cleavage was 0.02.

Which self-cleavage does the source give for G19A C23U G40C U43G here?
The self-cleavage was 0.02.

Which self-cleavage does the source give for A11G G33U C42U here?
Its self-cleavage is 0.11.

For G5U C8U A41U, which self-cleavage is on record?
Its self-cleavage is 0.21.

For G1U A14U A24U G44A C45G, which self-cleavage is on record?
Its self-cleavage is 0.04.

For G30C U32A A39U C42U C45G, which self-cleavage is on record?
The self-cleavage was 0.02.

Which self-cleavage does the source give for G1C C8U A39C C46U here?
The self-cleavage was 0.08.

Which self-cleavage does the source give for A4U A14U C18A here?
The self-cleavage was 0.05.

Which self-cleavage does the source give for A6U G7U G17C A26C U28C U32C C37G here?
Its self-cleavage is 0.01.

Which self-cleavage does the source give for G7A C23A C31G here?
The self-cleavage was 0.15.

Which self-cleavage does the source give for G30A U38C C46G here?
Its self-cleavage is 0.17.

Which self-cleavage does the source give for G5C G7C G44A here?
Its self-cleavage is 0.04.

For G2U U20G C46U, which self-cleavage is on record?
The self-cleavage was 0.06.

Which self-cleavage does the source give for C8G G21U A41G here?
The self-cleavage was 0.05.

For G5U C31G A41C, which self-cleavage is on record?
Its self-cleavage is 0.04.

With C13A A14U U32G A41U as the variant, how does the self-cleavage read?
Its self-cleavage is 0.03.

With G7U C10G C15G C42U as the variant, how does the self-cleavage read?
Its self-cleavage is 0.01.

Which self-cleavage does the source give for G33U C37A C42A C46U here?
Its self-cleavage is 0.36.

With C10U A14C G36C C37A as the variant, how does the self-cleavage read?
The self-cleavage was 0.04.

For G27A U28C G36U G40U, which self-cleavage is on record?
The self-cleavage was 0.19.

For G5U A12G G17A C18A G19U A24U G33A C45A, which self-cleavage is on record?
Its self-cleavage is 0.
